According to the RNAGym collection of RNA variant scans (doi:10.1093/nar/gkz1192):
The source gives no read counts; variants with many changes may rest on few reads.

B1: CPEB3 Ribozyme (parent)
chain: UAACAGGGGGCCACAGCAGAAGCGUUCACGUCGCAGCCCCUGUCAGAUUCUGGUGAAUCUGCGAAUUCUGCUGUAUAUCUC

Variants of: B1
Assay: self-cleavage, relative activity (ratio to wild type); higher = more cleavage; in vitro, sequencing
Method in brief: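 After error-prone PCR and barcoding, CPEB3 ribozyme mutant libraries were transcribed with T7 RNA polymerase at 37°C for 5 hours, then given 15 min with DNase I before an EDTA stop, and they cleaved during both steps. Reverse transcription with template switching preceded Illumina sequencing. Relative activity divides a variant's cleaved/total read fraction by the unmutated ribozyme's. At least 5 reads were required per variant, and three batches were averaged.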

| Variant | self-cleavage |
| --- | --- |
| UAACAGGGGGCCACAGCAGAGGCGUUCACGCCACAGCCCCUGUCAGAUUCUGGUGAAUCUGCGAAUUCUGCGGUAUAUCUC | 0.05 |
| UAACAGGGGGCCACAGCAGAGGCGUUCACGCCUCAGCCCCCGUCAGAUUCUGGUGAAUCUGCGAACUCUGCUGUAUAUCCC | 0.05 |
| UAACAGGGGGCCACAGCAGAGGCGUUCACGCCGCAUCCCCUGUCAGAUUCUGGUGAAUCCGCGAAGUCUGCUGUAUAUCUC | 0.11 |
| UAACAGGGGGCCACAGCAGAGGCGUUCACGCCGCAGCCCCAGUCGGAUUCUGGUGAAUCUGCGAAUUCUGCUGUAUAUCUC | 0.29 |
| UAACAGGGGGCCACAGCAGAGGCGUUCACGCCGCAGCCCCAGUCGGAUUCUGGUGAAUCUGCGAAUCCUGCUGUUUAUCUC | 0.05 |
| UAACAGGGGGCCACAGCAGAGGCGUUCACGCCGCAGCCCCAGUCAGAUUCUGGCGAAUCUGCGAACUCUGCUGUAUAUCUC | 0.2 |
| UAACAGGGGGCCACAGCAGAGGCGUUCACGCCGCAGCCCCUGUCAGACUCUGGUGAAUCUGCGAAUUCUGCUGUAUACCUC | 0.11 |
| UAACAGGGGGCCACAGCAGAGGCGUUCACGCCGCAGCCCCUGUCAGAUUCAGGAGAAUCUGCGAACUCUGCUGUAUAUCUC | 0.64 |
| UAACAGGGGGCCACAGCAGAGGCGUUCACGCCGCAGCCCCUGUCAGAUUCCGGUGAGUCUGCGAGUUCUGCUGUAAAUCUC | 0.05 |
| UAACAGGGGGCCACAGCAGAGGCGUUCACGCCGCAGCCCCUGUCAGAUUCUGGCGAAUCUGCGAGUUCUGCUGUAUAUCUC | 0.13 |
| UAACAGGGGGCCACAGCAGAGGCGUUCACGCCGCAGCCCCUGUCAGAUUCUGGCGAAUCUGCGAAUUCUGCUGUUUAUCUC | 0.3 |
| UAACAGGGGGCCACAGCAGAGGCGUUCACGCCGCAGCCCCUGUCAGAUUCUGGUGAACCUGCGAAUUCUGCUGUAUAUCCC | 0.09 |
| UAACAGGGGGCCACAGCAGAGGCGUUCACGCCGCAGCCCCUGUCAGAUUCUGGUGAAUCUGCGAAUCCUGCUGUAUAUCUC | 0.36 |
| UAACAGGGGGCCACAGCAGAGGCGUUCACGCCGCAGCCCCUGUCAGAUUCUGGUGAAUCUGCGAAUCGUGCUGUAUAUCUC | 0.06 |
| UAACAGGGGGCCACAGCAGAGGCGUUCACGCCGCAGCCCCUGUCAGAUUCUGGUGAAUCUGCGAAUUCCGCUGUAUAUCUC | 0.32 |
| UAACAGGGGGCCACAGCAGAGGCGUUCACGCCGCAGCCCCUGUCAGAUUCUGGUGAAUCUGCGAAUUCUGCUGUAUAACUC | 0.16 |
| UAACAGGGGGCCACAGCAGAGGCGUUCACGCCGCAGCCCCUGUCAGAUUCUGGUGAAUCUGCGAAUUCUGCUGUAUAUCAC | 0.25 |

| Variant | self-cleavage |
| --- | --- |
| UAACAGGGGGCCACAGCAGAGGCGUUCACGUCGCAGCCCCAGUCAGGUUCAGGUGAAUCUGCGAAUUCUGCAGUAUAUCAC | 0.11 |
| UAACAGGGGGCCACAGCAGAGGCGUUCACGUCGCAGCCCCAGUCAGAUUCUGGUGAAUCUGCGGAUUCUGCAGUAUAUCUC | 0.08 |
| UAACAGGGGGCCACAGCAGAGGCGUUCACGUCGCAGCCCCAGUCAGAUUCUGGUGAAUCUGCGUAUUCUGCUGUGUAUCUC | 0.1 |
| UAACAGGGGGCCACAGCAGAGGCGUUCACGUCGCAGCCCCAGUCAGAUUCUGGUGAAUCUGCGAAUUCUGCUGUGUAUCUC | 0.5 |
| UAACAGGGGGCCACAGCAGAGGCGUUCACGUCGCAGCCCCAGUCAGAUUCUGUUGGAUGUGCGAAUUCUGCUGAAUAUCUC | 0.03 |
| UAACAGGGGGCCACAGCAGAGGCGUUCACGUCGCAGCCCCAGCCAGAUUCUGGUGAAUCUGCGAAUUCUGCUGUAUAUCUC | 0.09 |
| UAACAGGGGGCCACAGCAGAGGCGUUCACGUCGCAGCCCCAGUCAGAUUCAGGUGAAUCUGCGAAUUAUGCUGUAUAUCUC | 0.18 |
| UAACAGGGGGCCACAGCAGAGGCGUUCACGUCGCAGCCCCAGUCAGAUUCUGGAGAAUCUGCGAACUCCGCCGUGUAUCUC | 0.06 |
| UAACAGGGGGCCACAGCAGAGGCGUUCACGUCGCAGCCCCAGUCAGAUUCUGGCGGAUCUGUGAAUUCUGCUGUAUAUCUC | 0.08 |
| UAACAGGGGGCCACAGCAGAGGCGUUCACGUCGCAGCCCCAGUCAGAUUCUGGUGAACCUGCGAAUCCUGCUGUAUAUCUC | 0.09 |
| UAACAGGGGGCCACAGCAGAGGCGUUCACGUCGCAGCCCCAGUCAGAUUCUGGUGAAUCCGCGAAUUCUGCUGUAUAUCCC | 0.19 |
| UAACAGGGGGCCACAGCAGAGGCGUUCACGUCGCAGCCCCAGUCAGAUUCUGGUGAAUCUGCGAAUUCAGCUGUAUAUCUC | 0.18 |
| UAACAGGGGGCCACAGCAGAGGCGUUCACGUCGCAGCCCCAGUCAGAUUCUGGUGAAUCUGCGAAUUCUGCUGCAUAUCUC | 0.11 |
| UAACAGGGGGCCACAGCAGAGGCGUUCACGUCGCAGCCCCCGUCGAAUCCUGGUGAAUCUGCGAAUUCUGCUGUAUAUCUC | 0.38 |
| UAACAGGGGGCCACAGCAGAGGCGUUCACGUCGCAGCCCCCGUCUGAUUCUGGUGAAUCUGCGGAUUCUGCUGUAUAUCUC | 0.16 |
| UAACAGGGGGCCACAGCAGAGGCGUUCACGUCGCAGCCCCCGUCUGAUCCUGGUGAAUCCGCGAAUUCUGCUGUAUAUCUC | 0.07 |
| UAACAGGGGGCCACAGCAGAGGCGUUCACGUCGCAGCCCCCGUCUGAUCCUGGUGAAUCUGCGAAUUCUGCAGUAUAUCUC | 0.07 |
